{
  "source": "patent US20250236878A1",
  "about": "(priority 2019, published 2025)",
  "key": {"[1]": {"test_system": "soybean plants (varieties AG35X7, AG41X8, AG27X7 and AG30X6)", "settings": "foliar spray V3-V6, 14 locations, vs surfactant control"}, "[2]": {"test_system": "soybean varieties AG2733, AG3931, P21a28x, P40a47x"}},
  "data": [
    {"substance": "Bt.4Q7Flg22 (SEQ ID NO: 226) (Composition 1) (DRLSSGKRINSASDDAAGLAIA; listed as Bacillus thuringiensis)", "values": [
      {"measurement": "Average Bu/Ac Increase compared to Control", "setting": "[1]", "value": "+0.29 Bu/Ac"}
    ]},
    {"substance": "Bt.4Q7Flg22 (SEQ ID NO: 226) (Row Crop Composition 1) (DRLSSGKRINSASDDAAGLAIA; listed as Bacillus thuringiensis)", "values": [
      {"measurement": "Average Bu/Ac Increase compared to Control", "setting": "[2]; foliar spray at R2, 11 sites, vs untreated control", "value": "+1.44 Bu/Ac"},
      {"measurement": "Average Total Yield Bu/Ac (11 sites)", "setting": "[2]; foliar spray at R2, Bt.4Q7Flg22 4.0 Fl. oz/Ac, Osmoprotectant 3.2 Fl. oz/Ac, untreated control = 65.16", "value": 66.60, "unit": "Bu/Ac"}
    ]}
  ]
}
